Assay [1] concerns the target T1, CD127 (UniProt P16871 21-239, limits assumed).
T1 construct: For the Biacore assay the construct is not described; also called CD127 receptor; IL-7Ralpha
T1 sequence (looked up): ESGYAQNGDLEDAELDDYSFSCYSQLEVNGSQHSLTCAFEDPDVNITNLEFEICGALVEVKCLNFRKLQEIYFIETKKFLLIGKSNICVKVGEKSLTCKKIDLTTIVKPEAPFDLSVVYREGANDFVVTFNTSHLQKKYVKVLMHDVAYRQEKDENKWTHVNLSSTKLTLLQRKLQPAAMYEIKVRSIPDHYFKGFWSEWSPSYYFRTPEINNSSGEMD
As to the kind of experiment: bridging ELISA: PD-1 immobilised, varied bifunctional molecule plus a fixed quantity of His-tagged CD127, detection with anti-His-biotin and streptavidin-peroxidase. (ELISA stands for enzyme-linked immunosorbent assay.)

The target in assay [2] is T1, CD127. Briefly: Biacore, CD127 immobilised on the sensor chip, molecule at escalating doses. (SPR reads the build-up and loss of mass on a sensor chip optically.)
Assay [3] deals with T2, IL-7 receptor (IL-7R; CD127/CD132) on cells (human, UniProt P16871 21-459; P31785 23-369).
T2 construct: whole, on cells; also called IL-7R on U937 CD127+ cells; IL-7R on human T cells
T2 sequence (looked up) 1: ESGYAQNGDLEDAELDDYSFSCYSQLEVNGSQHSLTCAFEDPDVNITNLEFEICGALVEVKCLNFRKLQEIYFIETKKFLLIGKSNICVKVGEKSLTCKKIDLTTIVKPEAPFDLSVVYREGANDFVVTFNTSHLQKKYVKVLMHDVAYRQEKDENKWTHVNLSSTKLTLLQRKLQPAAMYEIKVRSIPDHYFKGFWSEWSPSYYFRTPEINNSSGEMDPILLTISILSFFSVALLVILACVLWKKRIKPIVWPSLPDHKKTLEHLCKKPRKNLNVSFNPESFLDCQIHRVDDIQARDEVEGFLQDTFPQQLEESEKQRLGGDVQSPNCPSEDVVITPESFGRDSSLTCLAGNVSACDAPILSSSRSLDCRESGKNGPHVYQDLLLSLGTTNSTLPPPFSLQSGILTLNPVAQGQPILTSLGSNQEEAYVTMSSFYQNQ
T2 sequence (looked up) 2: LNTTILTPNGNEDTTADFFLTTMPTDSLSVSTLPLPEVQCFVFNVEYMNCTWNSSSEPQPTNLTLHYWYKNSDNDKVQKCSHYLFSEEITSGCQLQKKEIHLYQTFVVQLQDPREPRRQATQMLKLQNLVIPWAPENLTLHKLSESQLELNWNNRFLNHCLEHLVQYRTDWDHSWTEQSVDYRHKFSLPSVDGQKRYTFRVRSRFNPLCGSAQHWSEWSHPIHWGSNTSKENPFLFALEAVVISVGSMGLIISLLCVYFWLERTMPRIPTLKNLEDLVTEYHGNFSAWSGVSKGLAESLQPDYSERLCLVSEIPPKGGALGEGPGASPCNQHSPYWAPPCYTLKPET
Briefly: flow cytometry on co-cultured U937 PD-1+CD127+ and U937 PD-1-CD127+ cells (1:1), detection with anti-human IgG-PE; bars of the binding EC50 (nM), n=2.

These results are taken from patent US20240067727A1 (OSE IMMUNOTHERAPEUTICS, published 2024).

B1: anti PD-1*2 IL-7 W142H*1 (other)
heavy 1: QIQLVQSGSELKKPGASVKVSCKASGYTFTHYAMNWVRQAPGQGLEWMGWINTNTGEPTYAQGFTGRFVFSLDTSVSTAYLQISSLKAEDTAVYYCAREREPGMDNWGQGTLVTVSSASTKGPSVFPLAPSSKSTSGGTAALGCLVKDYFPEPVTVSWNSGALTSGVHTFPAVLQSSGLYSLSSVVTVPSSSLGTQTYICNVNHKPSNTKVDKKVEPKSCDKTHTCPPCPAPELLGGPSVFLFPPKPKDTLMISRTPEVTCVVVDVSHEDPEVKFNWYVDGVEVHNAKTKPREEQYASTYRVVSVLTVLHQDWLNGKEYKCKVSNKALPAPIEKTISKAKGQPREPQVYTLPPCRDELTKNQVSLWCLVKGFYPSDIAVEWESNGQPENNYKTTPPVLDSDGSFFLYSKLTVDKSRWQQGNVFSCSVMHEALHNHYTQKSLSLSPGK
heavy 2: QIQLVQSGSELKKPGASVKVSCKASGYTFTHYAMNWVRQAPGQGLEWMGWINTNTGEPTYAQGFTGRFVFSLDTSVSTAYLQISSLKAEDTAVYYCAREREPGMDNWGQGTLVTVSSASTKGPSVFPLAPSSKSTSGGTAALGCLVKDYFPEPVTVSWNSGALTSGVHTFPAVLQSSGLYSLSSVVTVPSSSLGTQTYICNVNHKPSNTKVDKKV[human IgG1 Fc with changes not written out]GGGGSGGGGSGGGGSDCDIEGKDGKQYESVLMVSIDQLLDSMKEIGSNCLNNEFNFFKRHICDANKEGMFLFRAARKLRQFLKMNSTGDFDLHLLKVSEGTTILLNCTGQVKGRKPAALGEAQPTKSLEENKSLKEQKKLNDLCFLKRLLQEIKTCHNKILMGTKEH
light: DVVMTQSPLSLPVTLGQPASISCRSSQSLVHANTNTYLEWYQQRPGQSPRLLIYKVSNRFSGVPDRFSGSGSGTDFTLKISRVEAEDVGVYYCFQGTHVPNTFGQGTKLEIKRTVAAPSVFIFPPSDEQLKSGTASVVCLLNNFYPREAKVQWKVDNALQSGNSQESVTEQDSKDSTYSLSSTLTLSKADYEKHKVYACEVTHQGLSSPVTKSFNRGEC
notes: also called construction 2; anti PD-1*2/IL-7v*1
Turning to B1, in the assay with CD127 [1], the EC50 (read off the curve) – broadly, the concentration that produces a half-maximal response – was ~0.9 nM.

B2: anti PD-1*2 IL7 wild type*2 (other)
heavy: QIQLVQSGSELKKPGASVKVSCKASGYTFTHYAMNWVRQAPGQGLEWMGWINTNTGEPTYAQGFTGRFVFSLDTSVSTAYLQISSLKAEDTAVYYCAREREPGMDNWGQGTLVTVSSASTKGPSVFPLAPCSRSTSESTAALGCLVKDYFPEPVTVSWNSGALTSGVHTFPAVLQSSGLYSLSSVVTVPSSSLGTKTYTCNVDHKPSNTKVDKRV[human IgG4 Fc with S228P L445P (EU numbers) not written out]GGGGSGGGGSGGGGSDCDIEGKDGKQYESVLMVSIDQLLDSMKEIGSNCLNNEFNFFKRHICDANKEGMFLFRAARKLRQFLKMNSTGDFDLHLLKVSEGTTILLNCTGQVKGRKPAALGEAQPTKSLEENKSLKEQKKLNDLCFLKRLLQEIKTCWNKILMGTKEH
light: B1 light
notes: Corresponds to construction 1 but with wild type IL-7; also called BICKI-IL-7 WT; anti PD-1*2 IL7WT*2
For B2, the dissociation constant Kd (as a rule, the equilibrium constant for the complex coming apart) with CD127 [2] stood at 0.87 nM.

B3: anti PD-1*1 IL-7 W142H*2 (other)
chain: DKTHTCPPCPAPELLGGPSVFLFPPKPKDTLMISRTPEVTCVVVDVSHEDPEVKFNWYVDGVEVHNAKTKPREEQYASTYRVVSVLTVLHQDWLNGKEYKCKVSNKALPAPIEKTISKAKGQPREPQVYTLPPCRDELTKNQVSLWCLVKGFYPSDIAVEWESNGQPENNYKTTPPVLDSDGSFFLYSKLTVDKSRWQQGNVFSCSVMHEALHNHYTQKSLSLSPGKGGGGSGGGGSGGGGSDCDIEGKDGKQYESVLMVSIDQLLDSMKEIGSNCLNNEFNFFKRHICDANKEGMFLFRAARKLRQFLKMNSTGDFDLHLLKVSEGTTILLNCTGQVKGRKPAALGEAQPTKSLEENKSLKEQKKLNDLCFLKRLLQEIKTCHNKILMGTKEH
heavy: QIQLVQSGSELKKPGASVKVSCKASGYTFTHYAMNWVRQAPGQGLEWMGWINTNTGEPTYAQGFTGRFVFSLDTSVSTAYLQISSLKAEDTAVYYCAREREPGMDNWGQGTLVTVSSASTKGPSVFPLAPSSKSTSGGTAALGCLVKDYFPEPVTVSWNSGALTSGVHTFPAVLQSSGLYSLSSVVTVPSSSLGTQTYICNVNHKPSNTKVDKKV[human IgG1 Fc with changes not written out]GGGGSGGGGSGGGGSDCDIEGKDGKQYESVLMVSIDQLLDSMKEIGSNCLNNEFNFFKRHICDANKEGMFLFRAARKLRQFLKMNSTGDFDLHLLKVSEGTTILLNCTGQVKGRKPAALGEAQPTKSLEENKSLKEQKKLNDLCFLKRLLQEIKTCHNKILMGTKEH
light: B1 light
notes: also called construction 4; anti PD-1*1/IL-7v*2
B3: in assay [3], the binding result is reported as “binds”.
